The text below walks through data of article PMC6919601, “Identification of Plasmodium dipeptidyl aminopeptidase allosteric inhibitors by high throughput screening” (PLoS ONE, 2019).

Hit rate of the full screen: of about 110,000 compounds, about 230 (0.21%) showed an effect of 50% or more. The list shows a part of the results.
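Further: 30 min substrate incubation versus DMSO and 10 µM JCP410 controls.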

In the assay the target is DPAP1 (Plasmodium falciparum, UniProt Q8IIJ9). Description: primary screen, percent inhibition; read by cleavage of a fluorogenic dipeptide substrate; higher = more effect of the substance. On the set-up: species or system P. falciparum D10 trophozoite lysates; single well.
DPAP1, sequence (Q8IIJ9 whole entry, looked up): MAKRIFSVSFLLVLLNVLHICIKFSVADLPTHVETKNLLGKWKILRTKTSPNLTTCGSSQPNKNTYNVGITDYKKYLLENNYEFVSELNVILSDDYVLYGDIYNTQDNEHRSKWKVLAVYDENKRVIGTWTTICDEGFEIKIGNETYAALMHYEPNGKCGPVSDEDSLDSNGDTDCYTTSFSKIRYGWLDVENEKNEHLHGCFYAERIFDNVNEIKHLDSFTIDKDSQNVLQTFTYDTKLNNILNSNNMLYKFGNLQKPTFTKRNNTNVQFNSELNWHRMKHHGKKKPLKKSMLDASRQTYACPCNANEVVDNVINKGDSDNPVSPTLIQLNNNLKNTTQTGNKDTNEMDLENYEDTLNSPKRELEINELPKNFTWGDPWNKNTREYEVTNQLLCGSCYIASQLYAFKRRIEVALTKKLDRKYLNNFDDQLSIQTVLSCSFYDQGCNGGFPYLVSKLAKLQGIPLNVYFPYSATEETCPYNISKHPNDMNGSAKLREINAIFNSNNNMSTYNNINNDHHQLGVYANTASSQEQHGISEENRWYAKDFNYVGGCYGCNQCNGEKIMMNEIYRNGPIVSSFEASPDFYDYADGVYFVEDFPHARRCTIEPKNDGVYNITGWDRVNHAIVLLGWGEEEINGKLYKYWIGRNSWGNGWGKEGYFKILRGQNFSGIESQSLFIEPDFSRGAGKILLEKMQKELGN
Consider `CCOc1ccccc1C(=O)Nc1ccc(NC(=O)c2ccccc2OCC)cc1`, for which the “% Inhibition @ 10 uM” value stood at 2.01%. As for `Cc1ccc2c(CNCCc3ccc(Cl)cc3)c(C(=O)O)n(Cc3ccc(F)cc3Cl)c2c1`, the figure is 2.96%; as for `O=C(CCc1ccccc1)n1nc(-c2ccco2)nc1NCc1cccs1`, -5.08%; as for `C=CCOc1ccc(Oc2nc(N)nc(NCC)n2)nn1`, 0.401%. As for `CS(=O)(=O)C1=NSC2=NC(=O)/C(=C\c3ccc(-c4cccc(C(=O)O)c4)o3)C(=N)N21`, the figure is 0.163%; as for `CCOC(=O)c1ccc2ncc(-c3ccccc3)nc2c1`, -0.256%; as for `Cc1ccc(S(=O)(=O)N(C)c2ccc(C(=O)Nc3ccccc3C(=O)N3CCCC3)cc2)cc1`, 2.53%. `CC(=O)NCCc1c[nH]c2ccc(OCC(O)CNC(C)C)cc12` (centres unmarked): the “% Inhibition @ 10 uM” value is -1.4%. Consider `CC(C)(C)OC(=O)N[C@H](C(=O)NCC#N)C1CCCC1`, for which the “% Inhibition @ 10 uM” value turned out to be 0.174%. As for `COC(=O)C1=C(C)NC(=O)CC1c1ccc(Cl)cc1Cl` (centres unmarked), the figure is 1.84%; as for `CCCCCn1c(SCC(=O)Nc2ccccc2)nc2c1c(=O)[nH]c(=O)n2C`, -2.24%; as for `CCSc1nc2ccccc2n1Cc1nc(N)nc(N(C)C)n1`, 4.58%.

Consider `O=C(Nc1ccccc1C(F)(F)F)c1ccc(Cl)s1`, for which the “% Inhibition @ 10 uM” value is on record as -0.687%. Next, `COc1ccc(C(O)Cc2cccnc2)cc1` (centres unmarked): -2.42%. As for `Cc1nc2c3cccnc3nn2c(C)c1CCC(=O)NCCc1c[nH]c2ccccc12`, the figure is -0.0115%; as for `CCCCOc1ccc(C2CC(=O)Nc3c2c(=O)nc(SC)n3C)cc1` (centres unmarked), 3.84%; as for `Cc1oc2c(c1C(=O)N1CCc3ccccc3C1)C(=O)c1ccccc1C2=O`, 1.72%. As to `CC(C)C[C@H](NC(=O)OCc1ccccc1)C(=O)N[C@@H](CCc1ccccc1)C(=O)CNCc1ccccc1`, the “% Inhibition @ 10 uM” value is given as -3.97%. `COc1ccc(Cc2c(C)nc3ccc(OCCC(C)C)cc3c2S)cc1`: the “% Inhibition @ 10 uM” value was -3.44%. As for `C1CCCC(NCCCN2CCOCC2)CC1`, the figure is -2.95%; as for `O=C(NCc1ccc2c(c1)OCO2)c1cc2c(O)nc3ccccc3c2s1`, -0.499%; as for `Cn1c(=O)c2c(nc(NCC(O)c3ccccc3)n2C)n(C)c1=O` (centres unmarked), -9.66%. As for `COc1ccc(CC(=O)n2nc(-c3ccco3)nc2NCc2cccs2)cc1`, the figure is 8.02%; as for `COc1ccc(S(=O)(=O)N(CC(=O)N2CCc3ccccc3C2)c2ccccc2)cc1`, 5.51%.

As to `CCOC(=O)c1c(C)oc2ncnc(NC(C)c3ccccc3)c12` (centres unmarked), the “% Inhibition @ 10 uM” value is given as -7.65%. `O=[N+]([O-])c1ccc(Cl)c(CN2CCCC(O)C2)c1` (centres unmarked): the “% Inhibition @ 10 uM” value is recorded as 3.1%. Next, `Cc1ccc(-c2nnc3sc(COc4ccc(Br)cc4)nn23)cc1`: 6.01%; `CCSc1nc2cc([N+](=O)[O-])ccc2[nH]1`: 5.56%; `Cc1nn(C)cc1CNC(=O)c1nn2c(c1Cl)NC(c1cccs1)CC2C(F)(F)F` (centres unmarked): 2.45%. Turning to `O=c1cc(O)nc2ccccn12`, the “% Inhibition @ 10 uM” value was found to be 0.675%. As for `Cc1ccc(C2NCCc3[nH]cnc32)cc1` (centres unmarked), the figure is 0.774%; as for `COc1ccc(CNc2ccc(C)cc2)c2ccccc12`, -2.21%; as for `Oc1nc(/C=C/c2ccccc2)nc2sc3c(c12)CCCC3`, -1.85%. Next, `CC(=O)c1ccc(N2CCN(Cc3cccc(C(F)(F)F)c3)CC2)cc1`: -1.48%; `CCC(=O)NC(c1ccccc1)c1nc2ccccc2[nH]1` (centres unmarked): -0.58%. In the case of `Cc1cc(=O)n2nc(N3CCCC3C(=O)NCCCN3CCCC3=O)sc2n1` (centres unmarked), the “% Inhibition @ 10 uM” value was determined as 2.8%. As for `COc1ccc(CN2CCN(c3ccc([N+](=O)[O-])cc3)CC2)cc1C`, the figure is 0.317%; as for `O=C(CCc1nc2cccnc2n1Cc1cccs1)NCCc1c[nH]c2ccccc12`, 3.2%; as for `COc1cccc(C(=O)N2CCN(Cc3ccc(SC)cc3)CC2)c1`, 4%. Next, `CCOc1ccc(Oc2cc(N)ccn2)cc1`: 1.7%; `CC1(C)CC(=O)c2cc(OCC(=O)N3CCc4ccccc4C3)ccc2O1`: -3.12%. As for `CCOc1ccc(C(O)c2nccn2C)cc1` (centres unmarked), the figure is -0.0804%. For `CC(C)(C)c1ccc(NC(=O)CSc2nc3nncc-3c(O)n2-c2ccccc2)cc1`, the “% Inhibition @ 10 uM” value amounted to 0.726%.

`COC(=O)c1sccc1NC(=S)N1CCC(Cc2ccccc2)CC1`: the “% Inhibition @ 10 uM” value turned out to be 2.83%. Next, `O=C(NCc1ccccn1)C1CCN(S(=O)(=O)c2ccc(Br)cc2)CC1`: 1.57%. As for `CCc1nn(-c2nc3c(C)cccc3s2)c(N)c1C#N`, the “% Inhibition @ 10 uM” value was 1.57%. As for `COc1cccc(-c2nn3c(C)nnc3s2)c1`, the “% Inhibition @ 10 uM” value is reported as 3.88%. Consider `Cc1nn(C(C)C(=O)NCCC(C)C)c(=O)c2c1sc1ccccc12` (centres unmarked), for which the “% Inhibition @ 10 uM” value is -7.19%. As for `CCc1nn(C(CC)C(=O)NCc2cc(Br)ccc2OC)c(=O)c2cc3occc3n12` (centres unmarked), the “% Inhibition @ 10 uM” value stood at 3.11%. Next, `Cc1noc(NS(=O)(=O)c2ccc(NC(=O)c3ccc(Cl)cc3)cc2)c1C`: -8.95%; `CCc1nc2ccccc2n1CC(O)COCC1CC=CCC1` (centres unmarked): 9.32%; `Cc1cc(Cl)ccc1OC(C)C(=O)Nc1nc(C)c(C)s1` (centres unmarked): -4.59%. On to `O=C(CSc1c2c(nc3cc(Cl)ccc13)CCCC2)N1CCCC1`, for which the “% Inhibition @ 10 uM” value is -7.13%. On to `CC1=NN(C(=O)c2ccccc2F)C(O)(c2ccccc2)C1` (centres unmarked), for which the “% Inhibition @ 10 uM” value is listed as -5.31%. Next, `COc1ccc(C2C(C#N)=C(N)N(c3ccc(Cl)cc3)C3=C2C(=O)CCC3)cc1OC` (centres unmarked): -2.21%; `CCOCC(=O)NCCNC(=O)C(NC(=O)C1CCC(C)CC1)C(C)C` (centres unmarked): -5.67%. As for `Cc1coc2cc3oc(=O)c(CC(=O)NCc4ccco4)c(C)c3cc12`, the figure is 4.13%. As for `Cc1ccc(CCNC(=O)c2oc(=O)c3ccccc3c2-c2ccccc2)cc1`, the figure is 0.208%; as for `Cc1ccc(NC(=O)c2ccc(CN3CCOCC3)cc2)cc1C`, 0.643%.

On to `Cc1ccc(OCC(=O)O/N=C(\N)c2ccccc2)c(Br)c1`, for which the “% Inhibition @ 10 uM” value was found to be 0.484%. Consider `COc1ccc(CN2CCC(N3CC(C)OC(C)C3)CC2)cc1OC` (centres unmarked), for which the “% Inhibition @ 10 uM” value was 0.565%. For the molecule `CCOC(=O)C(C#N)/C(S)=N/c1ccccc1` (centres unmarked), the “% Inhibition @ 10 uM” value is listed as 1.27%. Regarding `C=CCn1c(-c2nonc2NC(C)=O)nc2ccccc21`, the “% Inhibition @ 10 uM” value is listed as -2.16%. As for `COc1ccc(S(=O)(=O)N2CCCC2C(=O)NCc2ccccc2Cl)cc1` (centres unmarked), the “% Inhibition @ 10 uM” value turned out to be 2.19%.

For `Cc1ccccc1-c1nnc(NC(=O)C(=O)c2c[nH]c3ccccc23)s1`, the “% Inhibition @ 10 uM” value worked out at 3.92%.
